The whole screen tested about 48,000 compounds, of which about 120 (0.25%) were called active. About 4% were inconclusive and are not listed. The call rests on the fitted dose curve; in most records, active means well fitted activation curve with a large enough effect; inconclusive means small, poorly fitted or top-dose-only effect, or another doubt; inactive means no such curve, though single readings can be large or run the other way. The list shows a part of the results.

This assay is described as follows: Primary qHTS for Identification of Small Molecule Activators of Huntingtin-Antisense Promoter Activity. Further: nearly all actives have a fitted effect of over 55% in size. The note with it: HEK293 HTT-AS promoter firefly luciferase reporter, 24 h; series mostly up to 57.5 µM; activity change, positive = activation: at the top concentration. In short, it runs like this:
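Firefly luciferase signal from promoter-reporter HEK293 cells was scaled between vehicle (0%) and zero RLU (-100%). Compounds were tested at final concentrations of up to 57.5 uM over 24 h at 37 degrees C. PTC124 at 50 uM final served as control inhibitor.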
`CC(C)c1ccc2oc(-c3ccc(Cl)c(NC(=O)c4cccs4)c3)nc2c1`: the “activity change, positive = activation” value is inactive: -27.5%.
As for `Cc1cccc(C)c1OCc1cc(=O)n2c(-c3ccccc3)csc2n1`, the figure is inactive: -25.7%; as for `Cn1nc(-c2ccc(OCC(=O)Nc3cccc(C(F)(F)F)c3)cc2)c2ccccc2c1=O`, inactive: -48.9%.
Take `COc1ccc(NC(=O)c2cc(S(=O)(=O)N3CCOCC3)cn2C)cc1Cl`: the “activity change, positive = activation” value was inactive: -21.2%.
In the case of `Cc1ccc(C(=O)Nc2ccc(F)cc2)cc1S(=O)(=O)N1CCCCCC1`, the “activity change, positive = activation” value was inactive: -29.7%.
`CCN(CC)CCOC(=O)C1(C2CCCCC2)CCCCC1`: the “activity change, positive = activation” value was inactive: -11.4%.
For `Cc1ccccc1NC(=O)C1CCC(CNS(=O)(=O)c2ccc3c(c2)C(C)(C)C(=O)N3C)CC1` (stereo unspecified), the “activity change, positive = activation” value was inactive: -26.8%.
With `CCCCOCCOCCOCc1cc2c(cc1CCC)OCO2`, the activity change, positive = activation result is “inactive”.
Turning to `Oc1ccccc1`, the “activity change, positive = activation” value was inactive: 1.33%.
For `CCOc1ccc(CCNC(=O)c2cn(C)c3ccc(S(=O)(=O)N4CCOCC4)cc3c2=O)cc1OCC`, the “activity change, positive = activation” value was inactive: 5.95%.
With `Cc1ccc(-n2ncc3c(N(C)Cc4ccccc4)ncnc32)cc1` the figure was inactive: -29.8%; with `Cc1cc(NS(=O)(=O)c2ccc(NC(=O)c3ccccc3F)cc2)nc(C)n1`, inactive: -20.1%.
For `Cc1cccc(Cn2c(C)c(C)c3cc(C(=O)NCc4ccco4)ccc32)c1`, the “activity change, positive = activation” value is inactive: -30.5%.
As for `COc1ccc(S(=O)(=O)NCCc2csc3nc(-c4ccc(Cl)cc4)nn23)cc1C`, the “activity change, positive = activation” value was inactive: -28.9%.
Turning to `CS(=O)(=O)N1CCc2cc(S(=O)(=O)NCc3ccccc3Cl)ccc21`, the “activity change, positive = activation” value is inactive: -29.2%.
As for `COc1ccc2[nH]c(=O)c(CN(C(=O)c3cccc(Cl)c3)c3ccccc3OC)cc2c1`, the figure is inactive: -23.9%.
With `CC(=O)Nc1ccccc1OCc1cc(=O)n2c3c(sc2n1)CCCC3` the figure was inactive: -8.17%; with `Cn1c2ccccc2c2cnn(CC(=O)NCc3ccc(Cl)cc3)c(=O)c21`, inactive: -1.71%; with `COc1ccc(-c2nc(Cn3c(SCc4cccc(Cl)c4)nc4ccncc43)c(C)o2)cc1`, inactive: -36.6%.
For the molecule `Cc1ccc(Sc2c(C)nn(C(=O)COc3ccccc3)c2C)cc1`, the “activity change, positive = activation” value is inactive: 0.362%.
For `Cn1cnc(S(=O)(=O)N2CCC(C(=O)NCc3ccccc3)CC2)c1`, the “activity change, positive = activation” value is inactive: -9.15%.
With `CC1=C(c2ccc(F)cc2)S(=O)(=O)N=C1N1CCC(C(=O)NCCc2ccco2)CC1` the figure was inactive: -21.5%; with `CCOC(=O)c1c(S(=O)(=O)N2CCCC(C(=O)N(C)Cc3ccccc3)C2)c(C)n(C)c1C` (stereo unspecified), inactive: 9.27%; with `COc1cc(NC(=O)Cn2ccn(Cc3ccccc3OC)c(=O)c2=O)cc(OC)c1`, inactive: -8.63%.
On to `O=C(CN1CCN(Cc2ccc(F)cc2Cl)S1(=O)=O)Nc1ccc(F)cc1`, for which the “activity change, positive = activation” value is inactive: -27%.
For the molecule `Cc1ccc(C(c2sc3nc(-c4ccco4)nn3c2O)N2CCOCC2)cc1` (stereo unspecified), the “activity change, positive = activation” value was inactive: -7.32%.
With `COc1ccccc1NC(=O)CSc1nc2ccccc2c(=O)n1CCC(=O)NC1CCCCC1` the figure was inactive: 5.66%.
With `Cc1cccc(-n2c(-c3ccco3)nc3c(cnn3-c3ccccc3C)c2=O)c1` the figure was inactive: -36.4%; with `Cc1ccc(Cn2nc(C)c(NC(=O)c3cc(-c4ccc(F)cc4)on3)c2C)cc1`, inactive: -37.7%; with `Cc1ccc(NC(=O)Cn2c(C)cc(C)c(C#N)c2=O)cc1`, inactive: -1.41%.
Turning to `CCOc1ccc(NC(=O)Cn2c(=O)oc3cc(S(=O)(=O)NC4CCCC4)ccc32)cc1`, the “activity change, positive = activation” value was inactive: -27%.
With `CCC(=O)N1CCc2cc(Br)cc(S(=O)(=O)CCC(=O)N3CCN(c4ccccc4OC)CC3)c21` the figure was inactive: 6.74%; with `COc1ccc(-c2ccnc3[nH]n(-c4ccccc4)c(=O)c23)cc1`, inactive: -4.28%; with `COc1ccccc1N1CCN(S(=O)(=O)c2ccc3[nH]c4c(c3c2)CCCC4)CC1`, inactive: -35.8%.
On to `CCOc1cc(-c2nnc(SCC(=O)NCc3ccccc3)nc2-c2ccc(OC)c(OCC)c2)ccc1OC`, for which the “activity change, positive = activation” value is inactive: -30.5%.
In the case of `COc1ccc(/C=C\c2onc(C)c2S(=O)(=O)N2CCC(C(=O)Nc3ccc(Cl)cc3)CC2)cc1`, the “activity change, positive = activation” value was inactive: -18.1%.
As for `CCc1ccc(NC(=O)C2CCCN(S(=O)(=O)c3ccc4c(c3)CCCN4C(C)=O)C2)cc1` (stereo unspecified), the figure is inactive: -29.1%.
As for `Cc1ccc(-n2ncc(C(=O)N3CCCCC3)c2C2CCN(C(=O)OC(C)(C)C)CC2)cc1C`, the “activity change, positive = activation” value was inactive: -2.39%.
For `COc1ccc(C(=O)N2CC(=O)Nc3ccc(C)cc3C2c2ccccc2)c(OC)c1` (stereo unspecified), the “activity change, positive = activation” value was inactive: -9.1%.
As for `Cc1cccc(OCC(=O)NCC2(N3CCN(C)CC3)CCCCC2)c1C`, the figure is inactive: -15%; as for `COc1ccc(OCc2ccc(-c3nc(C#N)c(N4CCC(C)CC4)o3)o2)cc1`, inactive: -29.3%; as for `CCCNC(=O)C(=O)NCC(c1ccc2c(c1)OCO2)N1CCOCC1` (stereo unspecified), inactive: -11.1%.
For the molecule `CCc1ccc(S(=O)(=O)c2nnn(-c3ccc(F)cc3)c2N)cc1`, the “activity change, positive = activation” value is inactive: -36.7%.
With `CCc1ccc(NC(=O)CSC2=Nc3ccccc3C3=NC(CC(=O)NC4CCCCC4)C(=O)N23)cc1` (stereo unspecified) the figure was inactive: 7.53%; with `Cc1ccc2c(=O)cc(C(=O)Nc3ccc(S(=O)(=O)Nc4nc(C)cc(C)n4)cc3)oc2c1`, inactive: 20.3% [at 11.5 µM, percent change from vehicle, -100% = no light].
With `COc1ccc(NC(=O)C2CCCN(S(=O)(=O)c3ccc4c(c3)CCCC(=O)N4)C2)cc1OC` (stereo unspecified) the figure was inactive: -34.1%; with `CCCOC(=O)c1ccccc1`, inactive: -0.759%.
In the case of `O=C(C1CCN(c2ncnc3c2nc2n3CCCCC2)CC1)N1CCN(c2ccc(F)cc2)CC1`, the “activity change, positive = activation” value is inactive: -17.8%.
With `CCOc1cc(C2C(C(=O)Nc3ccc(OC)cc3)=C(C)Nc3nc(SC)nn32)ccc1O` (stereo unspecified), the “activity change, positive = activation” value was inactive: -9.03%.
As for `CCOc1ccc(/C=C/c2nc(C#N)c(N3CCCCC3)o2)cc1`, the figure is inactive: -17.7%; as for `Cc1ccc(OCC(=O)NCC2(N3CCOCC3)CCCCC2)cc1C`, inactive: -28%; as for `CCCCN(CCCC)CCNC(=O)c1cn(CC)c2ccc(S(=O)(=O)N3CCc4ccccc4C3)cc2c1=O`, inactive: -1.66%.
`CCCN(CCC)CCNC(=O)CN1C(=O)COc2ccc(S(=O)(=O)N3CCC(C)CC3)cc21`: the “activity change, positive = activation” value was inactive: -10.6%.
In the case of `CCOC(=O)Cn1nc(-c2ccccc2)c2cnc3ccc(OCC)cc3c21`, the “activity change, positive = activation” value is inactive: -23.5%.
As for `Cc1oc(-c2cccc(Cl)c2)nc1CN1CCC(C(=O)NCCCN2CCN(c3ccccc3F)CC2)CC1`, the figure is inactive: -24.6%; as for `CCOC(=O)CSc1nc2c([nH]c3ccccc32)c(=O)n1-c1ccc(OC)cc1`, inactive: -8.62%.
With `O=C(CN(CCc1ccccc1)S(=O)(=O)c1ccc(Br)cc1)NCc1ccc(Cl)cc1` the figure was inactive: -18.8%.
Regarding `COc1ccc(N(Cc2cccs2)C(=O)c2ccc(Br)o2)cc1`, the “activity change, positive = activation” value is inactive: -32.5%.
As for `CCC1CN(C(=O)C2CCN(S(=O)(=O)c3c(C)noc3/C=C/c3ccccc3F)CC2)c2cc(Cl)ccc2O1` (stereo unspecified), the figure is inactive: 18.4%.
With `COc1ccc(OC)c(Nc2ncnc3c2cnn3-c2cccc(Cl)c2)c1` the figure was inactive: -11.6%; with `Cc1ccn2c(Nc3ccc(F)cc3)c(-c3ccccn3)nc2c1`, inactive: 21.3%; with `O=C(Cn1nc(-c2ccccc2)nc(Cc2ccccc2)c1=O)Nc1ccccc1`, inactive: -4.97%.
Take `CCCCC(=O)OC1=C(C(C)=O)N(Cc2ccccc2)S(=O)(=O)c2ccccc21`: the “activity change, positive = activation” value was inactive: -17.6%.
With `CCC(Sc1ncnc2sc3c(c12)CCCC3)C(=O)OC(C)C` (stereo unspecified) the figure was inactive: -23.5%; with `CCCC(=O)N1CC(=O)Nc2ccc(Cl)cc2C1c1ccccc1` (stereo unspecified), inactive: -4.71%.
As for `Cc1ccc(N2C(=O)NC(NS(=O)(=O)c3ccc(Cl)cc3)(C(F)(F)F)C2=O)cc1C` (stereo unspecified), the figure is inactive: -28.3%; as for `COc1ccc(S(=O)(=O)N2CCC(c3ccncc3)CC2)cc1OC`, inactive: -28.1%; as for `CCc1ccc(NC(=O)Cn2c(=O)n(Cc3nc(-c4ccccc4)no3)c(=O)c3cc4c(cc32)OCO4)cc1`, inactive: -5.08%.
As for `Cc1cccc(C(=O)Nc2ccc(C(=O)OCc3cc(=O)n4nc(C5CC5)sc4n3)cc2)c1`, the figure is inactive: 0%; as for `COc1ccccc1N1CCN(C(=O)CCc2nnc3n(C)c(=O)c4sccc4n23)CC1`, inactive: -11.1%.
Consider `COc1ccc(S(=O)(=O)NCC(c2ccc(N(C)C)cc2)N2CCc3ccccc32)cc1` (stereo unspecified), for which the “activity change, positive = activation” value is inactive: -0.703%.
As for `COCCNC(=O)CSc1cn(CC(=O)N2CCCCCC2)c2ccccc12`, the figure is inactive: -14.6%; as for `Cc1ccc(NC(=O)C2CCCN2S(=O)(=O)c2ccc3nc(-c4ccccc4)[nH]c3c2)cc1F` (stereo unspecified), inactive: -37.8%.
For `CCOc1ccc(OCC)c(NC(=O)C2CCN(S(=O)(=O)c3cn(C)cn3)CC2)c1`, the “activity change, positive = activation” value is inactive: -1.84%.
As for `CSc1cccc(NC(=O)CC(c2cccs2)N2Cc3ccccc3C2=O)c1` (stereo unspecified), the figure is inactive: -33%.
With `COc1cc(-c2noc(CN3CCN(c4cccc(Cl)c4)CC3)n2)cc(OC)c1OC` the figure was inactive: -13.5%.
Take `CCOc1ccccc1NC(=O)N1CCN(C)c2ncccc21`: the “activity change, positive = activation” value is inactive: -20.4%.
With `Cc1ccc(NC(=O)CSc2n[nH]c(-c3ccc(F)cc3)n2)cc1F` the figure was inactive: -20.1%; with `O=Cc1ccccc1C=O`, inactive: -6.06%.
With `COc1ccc2nc(NC(=O)c3nc(S(=O)(=O)Cc4ccccc4)ncc3Cl)sc2c1` the figure was inactive: -54.8%; with `CSc1ccc(CCNC(=O)CCc2c(C)nc3c(c(C)nn3-c3ccc(C)c(C)c3)c2C)cc1`, inactive: -7.41%; with `CCOC(=O)c1cccc(NC(=O)c2ccc3nc(C(C)C)oc3c2)c1`, inactive: -1.73%.
As for `O=C(Nc1cccc(Cl)c1Cl)c1cc2nc(-c3ccc(Cl)cc3)cc(C(F)(F)F)n2n1`, the figure is inactive: -2.66%; as for `CCC(C(=O)Nc1nnc2n1CCS2)c1ccccc1` (stereo unspecified), inactive: -8.13%.
As to `COc1ccc(Cn2c(=O)n(-c3ccccc3C)c(=O)c3c4c(sc32)CN(C(C)=O)CC4)cc1`, the “activity change, positive = activation” value is inactive: -38.3%.
Turning to `CCCN(CCC)CCNC(=O)c1cc2c(-c3ccc(Cl)cc3)nn(C)c2s1`, the “activity change, positive = activation” value was inactive: -21.4%.
As for `O=C(NCCc1nc2ccccc2n1Cc1ccccc1)c1ccco1`, the figure is inactive: -12.2%; as for `CCN(CC)CCNC(=O)C1CCN(c2cc(C)nc3c(-c4ccc(Cl)cc4)c(C)nn23)CC1`, inactive: -22.3%.
For `Cc1ccc(NS(=O)(=O)c2cnc(N)nc2)c(C)c1`, the “activity change, positive = activation” value is inactive: -10.4%.
For the molecule `CCc1nn(CC(=O)Nc2cc(C)cc(C)c2)c(=O)c2cc3sccc3n12`, the “activity change, positive = activation” value is inactive: -28.1%.
With `Cc1nc(-n2nc(C)c(Cc3ccc4c(c3)OCO4)c2C)sc1C(=O)Nc1cccc(Cl)c1` the figure was inactive: -16.7%.
As for `Cc1ccc(CN2CCCn3nc(C(=O)NCc4ccc(OC(C)C)cc4)cc3C2=O)cc1`, the figure is inactive: -23%; as for `COC(=O)c1ccc(NC(=O)CCc2c(C)nc3c(-c4ccccc4)c(C)nn3c2C)cc1`, inactive: -34.8%; as for `CCn1c(CNC(=O)c2ccc(OC)cc2)nnc1SCC(=O)Nc1ccccc1`, inactive: -13.4%.
As for `COc1ccc(-n2c(C)c(C(C)=O)c3cc(OC(=O)c4ccc(C)cc4)ccc32)cc1`, the “activity change, positive = activation” value is inactive: -13.2%.
Take `CCOC(=O)c1ccc(OCC2c3cc(OC)c(OC)cc3CCN2C(=O)c2ccc(S(=O)(=O)N3CCCC3)cc2)cc1` (stereo unspecified): the “activity change, positive = activation” value was inactive: -9.62%.

The record behind these values is PubChem BioAssay AID1508624 (National Center for Advancing Translational Sciences (NCATS), 2021).
